# Laboratory results from PubChem BioAssay AID1346428 (National Center for Advancing Translational Sciences (NCATS), 2018).
# The campaign covered roughly 48,000 compounds. About 1,200 (2.5%) were called active. About 2% were inconclusive and are not listed.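 How the source made its calls: active means activation of at least 60% and not above a set upper limit (about 1 call in 100 departs from these limits); inconclusive means activation of 40% to 60%, or above that upper limit; inactive means activation under 40%.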 This is one part of the list.
# Target: Probable G-protein coupled receptor 32 (Homo sapiens) (UniProt O75388)
# Assay: qHTS for Agonists of Human Resolvin D1 Receptor DRV1; further: 0% is about no effect
# Conditions: CHO-K1 GPR32 beta-arrestin PathHunter luminescence, 90 min; at 76.9 µM; hits give high values; zero percent set by DMSO-only wells
# How it was run: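 Agonism was scored as beta-arrestin recruitment to ProLink-fused GPR32 in stably transfected CHO-K1 cells, giving a chemiluminescent beta-Gal signal; compounds were incubated 90 min at 37 °C.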
# Chain of UniProt O75388 (O75388 whole entry, looked up): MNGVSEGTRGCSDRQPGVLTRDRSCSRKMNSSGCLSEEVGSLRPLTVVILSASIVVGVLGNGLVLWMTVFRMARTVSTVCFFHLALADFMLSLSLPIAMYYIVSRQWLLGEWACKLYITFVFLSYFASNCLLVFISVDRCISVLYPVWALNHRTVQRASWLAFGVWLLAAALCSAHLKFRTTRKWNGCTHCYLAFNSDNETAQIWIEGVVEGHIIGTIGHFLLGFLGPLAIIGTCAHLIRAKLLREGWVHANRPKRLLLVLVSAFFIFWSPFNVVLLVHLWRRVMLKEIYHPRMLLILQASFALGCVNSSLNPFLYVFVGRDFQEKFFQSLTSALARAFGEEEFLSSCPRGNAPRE
row,Structure (SMILES),activation
1,COc1ccc(NC(=O)CCCS(=O)(=O)c2nc(-c3ccc(OC)c(OC)c3)cc(C(F)(F)F)n2)cc1OC,inactive: -10.1%
2,Cc1ccc(OCC(=O)Nc2ccc3nc(SCC(=O)N4CCCC4)sc3c2)cc1C,inactive: -10.7%
3,O=C(Nc1ccc2c(c1)N(C1CCCC1)C(=O)c1ccccc1S2)c1ccccc1,inactive: -1.06%
4,Cc1ccc(Cl)cc1NC(=O)CCS(=O)(=O)c1ccc(Br)s1,inactive: 47.4%
5,COc1cccc(-c2nc(CS(=O)CC(=O)N3CCN(c4cccc(C(F)(F)F)c4)CC3)c(C)o2)c1 (stereo unspecified),inactive: -2.35%
6,COc1ccc(CCNC(=O)C(=O)NCC(c2cccs2)S(=O)(=O)c2ccccc2)cc1 (stereo unspecified),inactive: 29.3%
7,Cc1ccc(SCC(=O)Nc2ccc3oc(-c4cccc(C)c4)nc3c2)cc1,inactive: 32.6%
8,CCN1C(=O)CC(C(=O)Nc2ccc(OC)cc2)SC1=Nc1ccc(C)c(C)c1 (stereo unspecified),inactive: 13.2%
9,COc1ccc(OC)c(CNS(=O)(=O)c2ccc(-c3cc(C(F)(F)F)on3)s2)c1,inactive: -6.29%
10,O=C(Cn1cc(SCc2ccccc2Cl)c2ccccc21)N1CCCCCC1,inactive: -15.9%
11,O=C(NCCC1=CCCCC1)c1ccc2c(c1)N(Cc1ccccc1)C(=O)c1ccccc1S2(=O)=O,inactive: -69.4%
12,CCOc1ccc(-c2nc3c(c(CC)nn3-c3ccccc3)c3cc(OC)c(OC)cc23)cc1,inactive: 5.94%
13,CSc1ccccc1NC(=O)C1=CC(c2ccc3c(c2)OCO3)=NS(=O)(=O)N1C,inactive: -26.1%
14,CC1=C(C(N)=O)C(c2cccc(C)c2)n2nc(-c3ccc(Cl)cc3)nc2N1 (stereo unspecified),inactive: -28.3%
15,OCC(CO)N[C@H]1C[C@](O)(CO)[C@@H](O)[C@H](O)[C@H]1O,inactive: 6.75%
16,C[N+]1(C)[C@@H]2CC(OC(=O)[C@H](CO)c3ccccc3)C[C@H]1[C@@H]1O[C@@H]12 (stereo partly specified),inactive: -8.8%
17,CCOC(=O)c1ccc2c(c1)N(CC(=O)Nc1cc(F)ccc1F)C(=O)c1ccccc1S2,inactive: 13.8%
18,CCN(CC)CCOC(=O)c1ccc(NC(=O)c2nn(-c3ccc(C)cc3)c(=O)c3c2c2ccccc2n3C)cc1,inactive: -14.8%
19,CCN(C(=O)Cn1nc2c3cc(F)ccc3n(Cc3cccc(C)c3)cc-2c1=O)c1cccc(C)c1,inactive: -8.27%
20,CCOC(=O)CCN(Cc1ccccc1)S(=O)(=O)c1csc(C(N)=O)c1,inactive: -3.24%
21,Cc1cccc(-c2nc3cc(NC(=O)Cc4ccc(Cl)cc4)ccc3o2)c1,inactive: 21.7%
22,COc1ccc(NC(=O)c2c(NC(=O)COc3ccc(Cl)cc3)sc3c2CCCCC3)cc1,inactive: -1.05%
23,CCOC(CN1CCN(CC(C)C(=O)c2ccccc2)CC1)c1ccccc1 (stereo unspecified),inactive: 36.3%
24,COc1cc(OC)c(NC(=O)N2CCOc3ccc(C)cc32)cc1Cl,inactive: -25.8%
25,COc1ccc(CNC(=O)c2oc3c(c2C)-c2nn(Cc4ccccc4Cl)cc2CC3)cc1,inactive: -16.3%
26,N#Cc1cc2c(=O)n3ccccc3nc2n(-c2nnc(SCc3ccc(F)cc3)s2)c1=O,inactive: 20.8%

row,Structure (SMILES),activation
1,Cc1ccc(C)c(NC(=O)C(=O)NCC(c2cccnc2)N2CCN(c3ccc(F)cc3)CC2)c1 (stereo unspecified),inactive: -0.0473%
2,COc1ccc(Cn2nnc3c(=O)[nH]c(C4CCCN(C(=O)c5ccccc5Cl)C4)nc32)cc1OC (stereo unspecified),inactive: 15.1%
3,CCOC(=O)c1ccc(NC(=O)c2nc(S(=O)(=O)Cc3ccccc3)ncc2Cl)cc1,inactive: -16.5%
4,COc1cc(NC(=O)C2=C(C)Nc3nnnn3C2c2ccc(SC)cc2)c(OC)cc1Cl (stereo unspecified),inactive: 0.477%
5,Cc1ccc(S(=O)(=O)c2cn(C)c3cc(N4CCN(c5ccccc5)CC4)c(F)cc3c2=O)cc1,inactive: 0.789%
6,CCOC(=O)N1CCc2c(sc3c2c(=O)n(Cc2ccccc2)c(=O)n3Cc2cccc(Cl)c2)C1,inactive: -15.2%
7,CC1CN(C(=O)CCC(=O)NCc2cccs2)c2ccccc2O1 (stereo unspecified),inactive: -2.53%
8,COc1ccc(NC(=O)c2c(NCc3ccc(C)o3)sc3c2CCC(C)C3)cc1 (stereo unspecified),inactive: 20.3%
9,Cc1nn(CCCC(=O)NCc2ccccc2)c(=O)c2c1sc1ccccc12,inactive: -8.34%
10,Cc1ccc(-n2nc(C(=O)N3CCCCC3C)c(=O)n(C)c2=O)cc1 (stereo unspecified),inactive: 1.32%
11,CCOc1ccccc1NC(=O)C1CCN(S(=O)(=O)c2ccc(Br)cc2)CC1,inactive: -9.34%
12,COc1ccc(CCNC(=O)CSc2nnc(-c3ccc(C)cc3)c(-c3ccc(C)cc3)n2)cc1OC,inactive: -48.1%
13,CCCCOc1cccc(C(=O)N(Cc2ccc(Cl)cc2)C2CCS(=O)(=O)C2)c1 (stereo unspecified),inactive: -9.63%
14,Cc1ccc(-c2noc(-c3ccc(NCC4CCCO4)c([N+](=O)[O-])c3)n2)cc1 (stereo unspecified),inactive: 4.64%
15,CC(=O)c1ccc(N2CCN(C(=O)CS(=O)(=O)c3cccc4nsnc34)CC2)cc1,active: 88.5%
16,COc1cccc(C2=NN(S(C)(=O)=O)C(c3cn(-c4ccccc4)nc3-c3cccs3)C2)c1 (stereo unspecified),inactive: -4.61%
17,COc1ccc(CNC(=O)CN(C)c2nn3c(=O)cc(C)nc3s2)cc1,inactive: 8.98%
18,CC(=O)Oc1ccc(C2(c3ccc(OC(C)=O)cc3)Oc3ccccc3NC2=O)cc1,inactive: -20.3%
19,Cc1cc(=O)[nH]c2nnc(SCCC(C)C)n12,inactive: 39.6%
20,CCOc1ccc(C(=O)NCCS(=O)(=O)N2CCN(c3cccc(Cl)c3)CC2)cc1,inactive: 6.5%
21,COc1ccccc1NC(=O)N1CC=C(c2c[nH]c3ccccc23)CC1,inactive: -19%
22,COc1ccc(C(=O)c2cn(Cc3ccccc3F)c3ccc(F)cc3c2=O)cc1,inactive: -9.17%
23,Cc1ccc(-c2nnc(Nc3ccc(Cl)cc3)c3ccccc23)cc1S(=O)(=O)NCC1CCCO1 (stereo unspecified),inactive: -20.5%
24,O=C(c1cccc(Cl)c1)N1CCC(c2nc3c(nnn3Cc3ccc(F)cc3F)c(=O)[nH]2)CC1,inactive: -13.7%
25,Cc1cccc(NC(=O)c2oc3ccc(S(=O)(=O)N4CCCCC4)cc3c2C)c1C,inactive: 5.03%
